The full ranking holds about 81,000 sequences; the median of “one-hybrid fitness for binding NBS DNA” is about -0.1, and the highest 2% start at about 0.36. The list shows a part of the results.
B1: Caulobacter ParB omega fusion; a variant is named by its letters at X, in order, B8GW30 (parent)
chain: MESVVVGEPGMSEGRRGLGRGLSALLGEVDAAPAQAPGEQLGGSREAPIEILQRNPDQPRRTFREEDLEDLSNSIREKGVLQPILVRPSPDTAGEYQIVAGERAWRAAQRAGLKTVPIMVRELDDLAVLEIGIIENVQRADLNVLEEALSYKVLMEKFERTQENIAQTIGKSXSHVANXMRLLXLPDEVQSYLVSGELTAXHARAIAAAADPVALAKQIIEGGLSVRETEALARKAPNLSAGKSKGGRPPRVKDTDTQALESDLSSVLGLDVSIDHRGSTGTLTITYATLEQLDDLCNRLTRGI

Variants of: B1
Test: one-hybrid fitness for binding NBS DNA (the Noc-binding site; scaled: cognate 1, non-cognate 0); higher = stronger binding
Settings: with NBS DNA site
In short: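 Fitness is the rescaled log change in variant-to-wild-type read ratio, measured by Illumina sequencing of plasmids before and after bacterial one-hybrid selection. The scale puts cognate at 1 and non-cognate at 0. Selection of Caulobacter ParB libraries, four specificity codons randomised, took place in E. coli USO with a HIS3 reporter, site 19 bp from the promoter, over 48 hours at 37°C on M9-minus-histidine with 0.1 mM IPTG and 5 mM 3-AT.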

Variant	one-hybrid fitness for binding NBS DNA
ALTL	≤ 0.2
TADL	≤ 0.2
SLAQ	≤ 0.2
QDMV	≤ 0.2
QHEE	≤ 0.2
MCPR	≤ 0.2
SYLD	≤ 0.2
PPMP	≤ 0.2
SSSQ	≤ 0.2
RLLK	≤ 0.2
KTHY	≤ 0.2
CTSC	≤ 0.2
KWKC	≤ 0.2
PPPL	≤ 0.2
YRRC	≤ 0.2
SHDD	≤ 0.2
HPAC	≤ 0.2
SAQY	≤ 0.2
ELRS	≤ 0.2
HLHS	≤ 0.2
SLDV	≤ 0.2
HWDT	≤ 0.2
MKHR	≤ 0.2
IRAD	≤ 0.2
PHLD	≤ 0.2
HRNN	≤ 0.2

Variant	one-hybrid fitness for binding NBS DNA
GSSV	≤ 0.2
VCTM	≤ 0.2
ANIC	≤ 0.2
DEGT	≤ 0.2
HARW	≤ 0.2
MKHF	≤ 0.2
WLKL	≤ 0.2
HTNS	≤ 0.2
SKEI	≤ 0.2
LWPG	≤ 0.2
QKGK	≤ 0.2
RDMR	≤ 0.2
ELLV	≤ 0.2
LRSE	≤ 0.2
QGTC	≤ 0.2
MWSG	≤ 0.2
QTGN	0.255
VLPD	≤ 0.2
SYTI	≤ 0.2
LKMR	≤ 0.2
CDPG	≤ 0.2
NSLT	≤ 0.2
ERTH	≤ 0.2
SILY	≤ 0.2
KLPF	≤ 0.2
PIIL	≤ 0.2

Variant	one-hybrid fitness for binding NBS DNA
IVDR	≤ 0.2
EQMC	≤ 0.2
CIVP	≤ 0.2
SAPA	≤ 0.2
SEPI	≤ 0.2
SSIT	≤ 0.2
AQCY	≤ 0.2
QRYM	0.353
DWSG	≤ 0.2
ADMV	≤ 0.2
PVWS	≤ 0.2
QQSA	0.37
GVEG	≤ 0.2
HWSA	≤ 0.2
KCLR	≤ 0.2
LFVR	≤ 0.2
GCRC	≤ 0.2
SPNP	≤ 0.2
WALP	≤ 0.2
KCYT	≤ 0.2
RFTL	≤ 0.2
ARPF	≤ 0.2
ASDK	≤ 0.2
VISG	≤ 0.2
NEDS	≤ 0.2
HPGT	≤ 0.2

Variant	one-hybrid fitness for binding NBS DNA
QCGT	0.558
WSYC	≤ 0.2
RVGP	≤ 0.2
SHHL	≤ 0.2
NLQN	≤ 0.2
KASS	≤ 0.2
EMMG	≤ 0.2
EHQR	≤ 0.2
NMKY	≤ 0.2
FINS	≤ 0.2
QVAE	≤ 0.2
RGIM	≤ 0.2
IRWT	≤ 0.2
NAIL	≤ 0.2
TKRG	≤ 0.2
KDEG	≤ 0.2
QVDK	≤ 0.2
GHTS	≤ 0.2
LSIR	≤ 0.2
TRLS	≤ 0.2
FMTR	≤ 0.2
AQEI	≤ 0.2
KREW	≤ 0.2
LQCA	≤ 0.2
WCFG	≤ 0.2
LPDV	≤ 0.2

Variant	one-hybrid fitness for binding NBS DNA
QSDI	≤ 0.2
IPAC	≤ 0.2
QNDD	≤ 0.2
GLQV	≤ 0.2
VYAT	≤ 0.2
QGEC	≤ 0.2
KEPT	≤ 0.2
TGTH	≤ 0.2
KYDR	≤ 0.2
RYPS	≤ 0.2
GCIC	≤ 0.2
LICV	≤ 0.2
NPPK	≤ 0.2
NPFT	≤ 0.2
SDKR	≤ 0.2
LVVT	≤ 0.2
TEYT	≤ 0.2
EWGC	≤ 0.2
CGVC	≤ 0.2
QRIA	0.436
DETR	≤ 0.2
GTTS	≤ 0.2
LTTR	≤ 0.2
HTYW	≤ 0.2
LHAA	≤ 0.2
ACDY	≤ 0.2

Variant	one-hybrid fitness for binding NBS DNA
EPVT	≤ 0.2
MGST	≤ 0.2
DFID	≤ 0.2
YYWS	≤ 0.2
HAML	≤ 0.2
PLAR	≤ 0.2
HDSL	≤ 0.2
LGQL	≤ 0.2
PYIE	≤ 0.2
THCE	≤ 0.2
YPIT	≤ 0.2
IIYI	≤ 0.2
YASL	≤ 0.2
HVMF	≤ 0.2
VLLI	≤ 0.2
PQVC	≤ 0.2
DNWR	≤ 0.2
WYSV	≤ 0.2
KDKE	≤ 0.2
VLPS	≤ 0.2
GLLG	≤ 0.2
KRFC	≤ 0.2
ANYF	≤ 0.2
